Results from PubChem BioAssay AID1508623 (National Center for Advancing Translational Sciences (NCATS), 2021).
Hit rate of the full screen: of about 48,000 compounds, about 450 (0.94%) were called active. About 19% were inconclusive and are not listed. The call rests on the fitted dose curve; in most records, active means well fitted inhibition curve with a large enough effect; inconclusive means small, poorly fitted or top-dose-only effect; inactive means no such curve, though single readings can be large or run the other way. The list shows a part of the results.

Assay: Primary qHTS for Identification of Small Molecule Inhibitors of Huntingtin Promoter Activity; further: nearly all actives have a fitted effect of over 50% in size
Conditions: HEK293 HTT promoter firefly luciferase reporter (activity 0% = vehicle and -100% = no light), 24 h; series mostly up to 57.5 µM; activity change, negative = inhibition: at the top concentration
Summary of the method: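 HEK293 cells carrying firefly luciferase reporters were seeded at 2,500 per well in Opti-MEM and cultured for 24 h. They were then treated with compounds at up to 57.5 uM final for 24 h at 37 degrees C before Dual-Glo luminescence readout.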

Activity change, negative = inhibition, inactive:
CCC(Cc1ccccc1)NC(=O)CN1C(=O)COc2ccc(S(=O)(=O)N3CCCCCC3)cc21 (centres undefined) -18.8%
Cc1cc2c(cc1NC(=O)c1ccccc1C)n(C)c(=O)c(=O)n2C 1.17%
COc1ccc(CCNC(=O)CCCn2c(=O)c3cccn3c3ccccc32)cc1OC 5.18%
CCOCCCNC(=O)C1CCN(C(=O)c2cc3sccc3n2C)CC1 -0.278%
COc1ccc(NC(=O)CCCN2C(=O)C(c3ccccc3)Oc3cccnc32)c(OC)c1 (centres undefined) -21.3%
CCc1ccc(CNC(=O)CCCN2C(=O)CCn3nc(-c4cccn4C)cc32)cc1 0.561%
CCc1ccc2oc(C(=O)Nc3cccc(Cl)c3C)cc(=O)c2c1 -9.54%
CC(C)CCN(Cc1ccco1)C(=O)c1cc2c(s1)-c1ccccc1OC2 -34.1%
COc1cc(-c2nnc(SCCOc3ccc(Cl)cc3)o2)cc(OC)c1OC -13.7%
O=C(COc1ccccc1)OCc1cc(=O)n2nc(C3CC3)sc2n1 -5.18%
Cc1ccc(C(=O)c2c(N)c(-c3nc(-c4ccc5c(c4)OCO5)cs3)c3ccccn23)cc1C -19.9%
Cc1cccc(N2CCN(C(=O)Cc3c(C(=O)O)c(C)cn3C)CC2)c1C -26.4%
Cc1ccc(C(=O)Nc2cc(-c3nc4ncccc4o3)ccc2C)c(C)c1 22.6%
COCc1nn2cc(-c3ccc(C)cc3)nc2s1 -25.9%
CC(=O)N1CCc2c(sc3c2c(=O)n(Cc2ccccc2)c(=O)n3Cc2ccc(C)cc2)C1 -4.97%
COC(=O)c1ccc(Cn2cnc3nc4c(cc3c2=O)CCCC4)cc1 0.478%
CCOc1ccccc1CNC(=O)C1CCN(S(=O)(=O)c2ccc3[nH]c(=O)ccc3c2)CC1 -4.49%
CCOc1ccccc1NC(=O)Cn1ncc2c(=O)oc3ccc(C)cc3c21 13.4%
CCOC(=O)c1c(C)oc2ncnc(Nc3ccc(OC)cc3OC)c12 -10.9%
COc1ccccc1NC(=O)CSC1=Nc2ccccc2C2=NC(CCC(=O)NCCc3ccccc3)C(=O)N12 (centres undefined) -17.5%
O=C(Nc1nc2c(s1)CCCCCC2)Nc1ccc(F)cc1F 47.6%
COc1ccc(N2CCN(C(c3ccccc3)c3sc4nc(-c5ccco5)nn4c3O)CC2)cc1 (centres undefined) -28.7%
CN1C(=O)Cc2cc(S(=O)(=O)NCCc3ccc(Cl)cc3)ccc21 8.5%
O=C(Nc1ccc(O)c(-c2nc3ccccc3o2)c1)c1sc2ccccc2c1Cl -17.4%
Cc1cccc(C2C=C(c3ccc(C)c(C)c3)Nc3nnnn32)c1 (centres undefined) -11.9%
CC(C)c1ccc(NC(=O)c2ccc3c(c2)CCN3S(=O)(=O)c2ccccc2)cc1 -27.1%
O=C(Nc1nnc(S(=O)(=O)N2CCCc3ccccc32)s1)c1ccccc1Cl -18.7%
CCc1nn2c(=O)cc(COC(=O)CNC(=O)COc3ccc(C)cc3)nc2s1 -1.71%
CC(C)CC(NS(=O)(=O)c1ccc2c(c1)oc(=O)n2C)C(=O)NCc1ccccc1Cl (centres undefined) -9.1%
Cc1ccc(NC(=O)CN2CCN(S(=O)(=O)c3ccc(C(C)C)cc3)CC2)cc1F -19.6%
COc1ccc(Nc2nc(N)nc(N)c2S(=O)(=O)c2ccccc2)cc1 -24%
Cc1cn(C)c(CC(=O)N2CCN(c3cccc(Cl)c3)CC2)c1C(=O)O -20.2%
Nc1nc2c(ncn2CCC(CO)CO)c(=O)[nH]1 -5.6%
Cc1ccc(-n2cc(C(=O)Oc3cccc(C)c3)c3ccccc3c2=O)cc1 -8.62%
O=c1c2ccccc2n(Cc2ccccc2Cl)c(=O)n1CCc1ccccc1 0.139%
CCCN(CCC)C(=O)Cn1c(=O)n(-c2ccc(CC)cc2)c(=O)c2ccc(C(=O)NCCc3ccccc3)cc21 -15.8%
CCOC(=O)c1ccc(Nc2nc3ccc(C(=O)c4ccccc4)cc3n3c(C)nnc23)cc1 -12.3%
CCCCCOc1ccc(Cn2c(=O)oc3ccccc32)cc1 5.99%
COc1cc(Cl)c(NC(=O)CCS(=O)(=O)c2ccc3c(c2)NC(=O)CO3)c(OC)c1 0%
CCCOc1ccc(C(=O)OCCN(CC)CC)cc1N
CC(C)(C)OC(=O)N1CCC(c2c(C(=O)NC3CCN(Cc4ccccc4)CC3)cnn2-c2ccc(F)cc2F)CC1 -8.32%
Cc1ccc(NC(=O)C2CCCN(S(=O)(=O)c3ccc4c(c3)oc(=O)n4C)C2)cc1Cl (centres undefined) -3.25%
CCOc1ccc(NC(=O)C(=O)c2cc(C)n(-c3cc(C)cc(C)c3)c2C)cc1 -12.8%
COc1ccc(-c2cc(C(=O)NCCc3ccccc3)c3c(-c4ccccc4)[nH]nc3n2)cc1OC -3.19%
Cc1ccc(/C=C/c2onc(C)c2S(=O)(=O)N2CCC(C(=O)Nc3cc(C)ccc3C)CC2)cc1 -6.65%
COc1ccc(S(=O)(=O)c2cn(C)c3ccc(C)cc3c2=O)cc1 -15.7%
O=C(Nc1ccc(F)cc1C(F)(F)F)C1CCN(c2ncccn2)CC1 -9.58%
Cc1cccc(NC(=O)c2c(C)cc(C)nc2SCC(=O)c2ccccc2)c1 -19.9%
Cc1cc(C)c2oc(C(=O)Nc3ccc(S(=O)(=O)N4CCCCCC4)cc3)cc(=O)c2c1 0%
CCOc1ccc(OCC)c(Nc2ccc3cc(S(=O)(=O)N4CCCC4)ccc3n2)c1 -5.81%
CCC1CN(C(=O)N2CCC(C(=O)NCc3cccc(OC)c3OC)CC2)c2cc(C)ccc2O1 (centres undefined) -18.5%
COc1ccccc1NC(=O)c1sc2nc(C)c(C(=O)Nc3ccc(C)cc3C)c(-c3ccco3)c2c1N -4.19%
COc1cccc(-c2noc(C3CC(=O)N(c4ccc(F)cc4)C3)n2)c1OC (centres undefined) 3.67%
COc1ccccc1CNC(=O)c1cc2sccc2n1Cc1ccc(Cl)cc1 -16.8%
CCc1ccc(NC(=O)CCn2c(=O)c3cccn3c3ccccc32)cc1 -26%
Cc1ccccc1NC(=O)CSc1nc2ccc(NC(=O)c3cccs3)cc2s1 -6.07%
Cc1ccc(NC(=O)c2ccc3[nH]c(C)cc(=O)c3c2)cc1 1.37%
CSc1cccc(NC(=O)c2cccc(N3CCCS3(=O)=O)c2)c1 47%
Cc1nc(-c2ccc(S(=O)(=O)Nc3ccc(C#N)cc3)cc2)co1 -31.3%
COc1cc(C(=O)OCc2cc(=O)n3nc(C4CCCCC4)sc3n2)cc(OC)c1OC -19.3%
COc1cc2cc(CNc3ccccc3)c(=O)n(CC(=O)Nc3ccccc3)c2cc1OC -20%
CCc1cccc(NC(=O)c2cn3c4c(ccc(Cl)c4c2=O)OC(C)C3)c1 (centres undefined) -19.6%
CCn1nnc2cc(C(=O)Nc3ccc(Cl)cc3C)ccc21 13.9%
CCc1cccc(-n2c(=O)c3cccnc3n2CC(=O)NCc2ccccc2)c1 -26.2%
O=C(NCCC1=CCCCC1)c1ccc2c(c1)N(Cc1ccccc1F)C(=O)c1ccccc1S2=O (centres undefined) -14.9%
COc1cccc(NC(=O)Cn2c(=O)cc(C)c3c(C)nn(-c4cccc(F)c4)c32)c1 33.6%
CC1CCCCN1C(=O)Cn1c(=O)n(-c2ccc(Cl)cc2)c(=O)c2c3c(sc21)CCC3 (centres undefined) -8.73%
CCN1CCN(C(c2ccc(OC)cc2)c2c(O)cc(C)n(Cc3ccco3)c2=O)CC1 (centres undefined) -7.71%
CCN(CC)c1nc2c(-c3cccc(Br)c3)nnn2c2ccccc12 36.9%
COc1cccc(NC(=O)C2CCN(S(=O)(=O)c3cccc4nonc34)CC2)c1 -7.35%
COCCCn1c(=N)c(C(=O)NCC2CCCO2)cc2c(=O)n3cc(C)ccc3nc21 (centres undefined) 1.15%
Cc1ccc(Nc2c(-c3ccc(N(C)C)cc3)nc3nc[nH]n23)cc1 70%
CC(=O)OCC(=O)[C@H]1CC[C@H]2[C@@H]3CCC4=CC(=O)CC[C@]4(C)[C@H]3CC[C@]12C 4.75%
Cc1ccc2c(=O)cc(C(=O)Nc3ccc(S(=O)(=O)N4CCC(C)CC4)cc3)oc2c1C 13%
O=C(Cc1ccccc1)Nc1sc2c(c1C(=O)Nc1ccccc1)CCCCC2 0.0875%
COc1cc(C2CC(=O)Nc3c2c(C)nn3-c2nc(C)cc(C)n2)cc(OC)c1O (centres undefined) -3.79%
COc1cccc(-c2nn3c(=O)cc(CN4CCN(S(=O)(=O)c5ccc(C)cc5)CC4)nc3s2)c1 1.53%
COc1ccc(-c2nc3ccccc3n3c(-c4cccc(C)c4)c4c(=O)n(C)c(=O)n(C)c4c23)cc1 -11.4%
CSc1nc(=O)c2c(n1C)NC(=O)CC2c1ccccc1OC(C)C (centres undefined) -10.4%
COc1cccc(-c2cn3c(n2)sc2cc(C(=O)NCCCc4ccccc4)ccc23)c1 -20.2%
CCc1ccc2c(c1)c(=O)c(S(=O)(=O)c1ccc(Cl)cc1)cn2CC -39.1%
CCOc1ccc(CCNC(=O)CCCn2c(=O)c3cccn3c3cccnc32)cc1OCC 10.1%
COc1cccc(CNCCSc2nnnn2C)c1OCc1ccccc1 -8.67%
COC(=O)CC1Oc2ccccc2-n2cc(-c3ccc(C)cc3)nc21 (centres undefined) -5.87%
NC[C@@H]1O[C@@H](O[C@H]2[C@@H](O)[C@H](O[C@@H]3[C@@H](O)[C@@H](N)C[C@H](N)[C@H]3O[C@H]3O[C@H](CN)[C@@H](O)[C@@H](O)[C@H]3N)O[C@H]2CO)[C@H](N)[C@@H](O)[C@@H]1O 7.06%
Cc1ccc(S(=O)(=O)NCC2CCC(C(=O)NCc3ccc(F)cc3)CC2)cc1 (centres undefined) -4.37%
COc1ccc(C)cc1NC(=O)C1CCN(S(=O)(=O)c2c(C)noc2/C=C/c2ccco2)CC1 -7.79%
C#C[C@]1(O)CC[C@H]2[C@@H]3CCC4=CC(=O)CC[C@@H]4[C@H]3CC[C@@]21CC 7.79%
COc1cccc(-n2c(-c3ccc(Cl)cc3)cc3c2CC(C)(C)CC3=O)c1 -29.7%
O=C(Nc1ccc(F)cc1F)C(Cc1ccccc1)N1Cc2ccccc2C1=O (centres undefined) -24.2%
O=C(CCC(=O)N1CC2CCCN2c2ccccc21)NCc1cccc(Cl)c1 (centres undefined) -23.4%
COc1cc2c(=O)n(Cc3ccccc3Cl)c(=O)n(CC(=O)Nc3ccccc3)c2cc1OC -16.9%
Cc1ccc(C(=O)Nc2nc3ccc(S(=O)(=O)N4CCCC4)cc3s2)cc1 7.61%
Cc1ccc(-c2nnc(SCC(=O)NC3CCCC3)nc2-c2ccc(C)cc2)cc1 -23.4%
